PubChem BioAssay AID493208 (National Center for Advancing Translational Sciences (NCATS), 2011)
Out of some 44,000 compounds screened, about 340 (0.77%) were called active. Another 5% or so got no clear call; they are omitted. Calls come from the whole dose curve; as a rule, active = well fitted inhibition curve with a large enough effect; inconclusive = small, poorly fitted or top-dose-only effect; inactive = flat fitted curve, though single readings scatter. Some of the results follow.

Assay: Acumen qHTS Assay for Inhibitors of the mTORC1 Signaling Pathway in MEF (Tsc2-/-, p53-/-) Cells: Sytravon;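 note: plate controls were DMSO for no effect and rapamycin for full effect; nearly all actives have a fitted effect of over 50% in size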
Conditions: phospho-rpS6 immunofluorescence/PI, 24 h; series mostly up to 38.3 µM; activity change, negative = inhibition: at the top concentration
Outline: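 Compounds act on Tsc2-/-, p53-/- fibroblasts carrying an empty vector for 24 h before fixation and dual staining for phospho-S6 and DNA (propidium iodide). Values are percentages of cells above a rapamycin-defined pS6/PI threshold.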

Activity change, negative = inhibition, inactive:
COc1ccc(-c2nc(C)c(CCNC(=O)c3cccs3)s2)cc1OC -2.36%
COc1ccccc1CNc1cc(C)nc2nc(-c3ccc(C)cc3)nn12 -9.03%
CC(C)(C)OC(=O)N1CCC(c2c(C(=O)N3CCN(c4ccccn4)CC3)cnn2-c2ccccc2)CC1 -5.45%
c1ccc(-c2noc(-c3cccnc3NCc3ccco3)n2)cc1 1.83%
COCCNC(=O)Cn1c(=O)n(CCCCCC(=O)NCc2ccccc2Cl)c(=O)c2sccc21 6.87%
Cc1cccc(Cn2c(SCc3ccc(C(=O)NCc4ccccc4F)cc3)nc3ccncc32)c1 -5.65%
Cc1ccc(NC(=O)Cn2c(=O)oc3cc(S(=O)(=O)N4CCCCC4)ccc32)c(Cl)c1 -12.2%
CCN(CC)CCCNC(=O)CCCn1ncn2c(cc3occc32)c1=O 0.229%
COc1ccc(CN(C(=O)c2cc3ccccc3oc2=O)C2CCS(=O)(=O)C2)cc1OC (stereo unspecified) 0.871%
CC1CCCCN1C(=O)Cn1ncc2c3ccccc3n(Cc3ccccc3F)c2c1=O (stereo unspecified) -0.766%
CC(C)(C)C1CCc2c(sc3nc(-c4cc5ccccc5oc4=O)[nH]c(=O)c23)C1 (stereo unspecified) -24.2%
Cc1c(-c2cccc(NC(=O)Nc3ccc(Cl)cc3)c2)nc2ncccn12 1.41%
COc1ccccc1-c1noc(-c2ccc(NC3CCCCC3)c([N+](=O)[O-])c2)n1 1.43%
COCCCNC(=O)c1cnc2sc(N3CCCCCC3)nn2c1=O -9.62%
Cc1ccc2c(c1)-c1c(cnn1CC(=O)N1CCN(c3ccccc3F)CC1)CO2 -8.08%
CCCCN(CCCNC(=O)CN1N=C(c2ccc(C)cc2)CCC1=O)c1ccccc1 -13.4%
COc1cccc(NC(=O)CCc2nc3c(C)nn(-c4ccc(C)cc4)c3n(C)c2=O)c1 0%
O=c1c(=O)n(Cc2ccc(Cl)cc2)ccn1Cc1ccc(F)cc1 -19.3%
COc1cccc(OCC(=O)NCCS(=O)(=O)N2CCN(c3ccccc3F)CC2)c1 -1.9%
COc1ccc(-c2cn3cccnc3n2)cc1NC(=O)Cc1ccccc1 0.0433%
Cc1ccc(-c2nc(CNC(=O)Nc3ccccc3)c(C)o2)cc1 13%
CCN(CC)C(=O)CSc1nc2ccsc2c(=O)n1Cc1ccccc1Cl -0.0151%
CCc1nc2cccnc2n1-c1ccc(CC(=O)Nc2c(C)cccc2C)cc1 -4.42%
Cc1cc(C)n2c(Nc3ccc(C(C)C)cc3)c(-c3ccsc3)nc2n1 -21.2%
CCOC(=O)c1ccc(NC(=O)Cn2cnc3sc(C(=O)OCC)c(C)c3c2=O)cc1 -3.89%
CCc1ccc(NC(=O)CSc2nc3c([nH]c4ccccc43)c(=O)n2-c2cccc(OC)c2)cc1 -0.0441%
CCCCCn1c(=O)c2c(nc3n2CCN3c2ccc(Br)cc2)n(C)c1=O 7.13%
COc1cc(C)ccc1OCCSc1nc2ccc(NC(C)=O)cc2s1 -5.57%
CCC(Sc1nnc2c3ccccc3n(C)c2n1)C(=O)Nc1nnc(C(C)C)s1 (stereo unspecified) 8.06%
COc1ccc(-c2cc3ccc(O)c(CN4CCCC4)c3oc2=O)cc1OC 1.88%
Cc1ccc(C)c(CNC(=O)c2sc3ncnc(N(C)C4CCCCC4)c3c2C)c1 -2.26%
COC(=O)COc1ccc(Oc2nc(NC(C)(C)C)nc(N(C)C)n2)nn1 -0.97%
Cc1cc(F)ccc1NC(=O)CCSc1nc(-c2ccco2)cc(C(F)(F)F)n1 3.89%
COc1ccc(CNC(=O)c2cn(-c3cccc(OC)c3)c(=O)c3ccccc23)cc1 4.5%
Cc1ccc(C(=O)NC2(C(F)(F)F)N=C(c3ccccc3)N(C3CCCCC3)C2=O)cc1 (stereo unspecified) -7.34%
CCOC(=O)c1c(C)c(-c2ccccc2)n(CC(=O)Nc2cccc(C)c2C)c1C 0.791%
CC(=O)Nc1ccc(Nc2ncnc3sc4c(c23)CCCC4)cc1 -3.52%
CCc1cc2c(cc3c(=O)n(CC(=O)NCCOC)nc(CC)n32)s1 -1.22%
Cc1ccc2nc(N(Cc3cccnc3)C(=O)CCOc3ccccc3)sc2c1 -2.67%
Cc1cccc(C(=O)N2CCc3cc(CNS(=O)(=O)c4cccs4)ccc32)c1 -8.31%
O=C(O)c1ccc(C2Nc3ccccc3-c3nnc(SCc4ccc(Cl)cc4)nc3O2)cc1 (stereo unspecified) 1.32%
CCCN1C(=O)C2(c3ccccc31)c1c(oc3ccccc3c1=O)C(=O)N2CCCOC(C)C (stereo unspecified) -5.82%
Cc1cccc(-c2nc(SCC(=O)N(C)c3ccccc3)c3c(=O)n(C)c(=O)n(C)c3n2)c1 2.88%
O=C(c1ccco1)N1CCN(C(=O)c2cnn(-c3cccc(F)c3)c2C2CCNCC2)CC1 7.95%
Cn1c(=O)cc(SCC(=O)N2CCN(c3ccccc3)CC2)c2ccccc21 -2.46%
COc1cccc(C(=O)Nc2ccc(C(=O)OCc3cc(=O)n4nc(C5CC5)sc4n3)cc2)c1 4.56%
COc1cc(OC)c(NC(=O)N2CC=C(c3c[nH]c4ccccc34)CC2)cc1Cl -14.7%
O=C(Cn1c(=O)n2nc(-c3cccc(F)c3)nc2c2ccccc21)N1CCN(c2ccccc2F)CC1 1.09%
O=C(c1cccc(Cl)c1)N1CCC(c2nc3ccccc3o2)CC1 0.124%
COc1ccc(OC)c(NC(=O)c2c(C)oc3ncnc(N4CCOCC4)c23)c1 -1.47%
CC1CCN(C(=O)C(C)Sc2nc(-c3ccccc3)cc(C(F)(F)F)n2)CC1 (stereo unspecified) 3.35%
CCCCn1c(=O)nc2n(-c3ccc(F)cc3)c3ccccc3cc-2c1=O 5.81%
Cc1ccc(-c2cc(C(F)(F)F)n3ncc(-c4ccc(Cl)cc4)c3n2)cc1 -1.03%
O=C(CSc1nc2c(cnn2-c2ccc(F)cc2)c(=O)[nH]1)Nc1ccccc1C(F)(F)F -0.0492%
COc1cccc(CNC(=O)c2cc3ccc4cccnc4c3[nH]2)c1 -5.1%
COc1ccccc1N1CCN(C(=O)c2cc3c(=O)oc4ccccc4c3s2)CC1 -5.67%
CCOc1ccc(N2CC(c3nc4ccccc4n3CCOc3ccccc3)CC2=O)cc1 (stereo unspecified) 6.82%
Cc1ccc(NC(=O)c2cc(S(=O)(=O)N3CCCCC3)c[nH]2)cc1F -7.07%
Cc1nn(-c2ccccc2)c2sc(C(=O)Nc3cccc(Br)c3)cc12 -17.6%
Cc1nc2ncnn2c(C)c1CCC(=O)NCc1cccc(Cl)c1 -8.35%
COc1ccc(C2C=C(c3ccccc3)Nc3nc(NC(=O)/C=C/c4ccc(Cl)cc4)nn32)cc1 (stereo unspecified) 2.66%
CCOC(=O)c1c(NC(=O)COc2ccc(Br)cc2)sc(C(C)=O)c1C 3.29%
Cc1noc(C)c1S(=O)(=O)NCCc1csc2nc(-c3ccc(Cl)cc3)nn12 -1.15%
COc1ccccc1-c1nnc(C2CCN(S(=O)(=O)c3ccc(F)c(C)c3)CC2)o1 -11.6%
O=C(COc1ccc(F)cc1)Nc1ccc(Cl)c(-c2nc3ccccc3[nH]2)c1 -9.14%
CCOC(=O)N1CCN(C(=O)Cn2ncc3c4ccccc4n(Cc4ccc(F)cc4)c3c2=O)CC1 0.284%
Cc1cccc(NC(=O)c2c(C)oc3ncnc(N4CCCCC4)c23)c1C -6.31%
CCCCc1nn2c(=O)cc(COC(=O)c3ccccc3NC(=O)c3cccc(C)c3)nc2s1 7.74%
Cc1ccc(Cl)cc1NS(=O)(=O)c1ccc(N2CCCCS2(=O)=O)cc1 0%
Cc1nc(-c2ccc(F)cc2)sc1CCNC(=O)c1ccc(C(C)(C)C)cc1 0%
COc1ccc2nc(NC(=O)c3cc(=O)c4cc(C)c(C)cc4o3)sc2c1 -1.07%
CC(=O)Nc1cccc(-c2cn3cccnc3n2)c1 -0.377%
Cc1ccc(NC(=O)Cn2c(=O)n(Cc3ccccc3)c(=O)c3c2c2cc(C)ccc2n3C)cc1 0.966%
CCOc1ccc(C(=O)c2c(N)c(-c3nc(-c4ccc(OCC)cc4)cs3)c3ccccn23)cc1 -0.0438%
Cc1ccc(C(=O)NCC(c2cccnc2)N2CCc3ccccc3C2)cc1C (stereo unspecified) 7.2%
CCOC(=O)CSc1nc2c(sc3ccccc32)c(=O)n1Cc1ccc(OC)cc1 0.475%
Cc1cccc(NC(=O)c2sc(-n3nc(C)c(CCC(C)C)c3C)nc2C)c1 -0.881%
Cc1ccc2c(c1)N(C(=O)N1CCC(C(=O)NCc3ccccc3F)CC1)CC(C)O2 (stereo unspecified) 4.77%
Nc1c(C(=O)c2ccccc2)sc(Nc2ccc(Cl)c(Cl)c2)c1C(=O)Nc1ccccc1 -5.53%
N#Cc1ccccc1OCC(=O)N1CCN(c2ccccc2F)CC1 -4.35%
O=S(=O)(c1ccccc1)c1nc(-c2ccccc2F)oc1N1CCOCC1 -19.8%
COc1ccc(-c2cn3c(n2)sc2cc(C(=O)Nc4ccc(C)cc4C)ccc23)cc1 1.06%
COc1ccc(CCNc2nc3cc(OC)c(OC)cc3c3nc(-c4cccnc4)nn23)cc1OC -3.49%
COc1ccc(OC)c(NC(=O)N2CCN(Cc3nc4ccc(C)cc4o3)CC2)c1 0%
COc1cc2ccccc2cc1C(=O)Nc1ccc2oc(-c3cccc(C)c3)nc2c1 -4.14%
CCOc1ccc(NC(=O)CCSc2nc(-c3ccc4c(c3)OCO4)cc(C(F)(F)F)n2)cc1 -5.98%
COc1ccc(-n2c3c(cc(-c4nc(-c5ccc(Cl)cc5)cs4)c2=O)C(=O)CC(C)(C)C3)cc1Cl 0.04%
Cc1ccccc1NCc1nc2ccccc2n1CCOc1ccccc1 7.5%
CCN1C(=O)c2ccccc2Sc2ccc(NC(=O)c3ccc(C#N)cc3)cc21 -1.97%
CN(C(=O)Cn1nnc(-c2ccc(S(C)(=O)=O)cc2)n1)c1ccccc1 -0.0924%
Cc1c(C(=O)N(C)C)sc2c1c(=O)n(-c1ccccc1C(F)(F)F)c(=O)n2Cc1cccc(F)c1 -5.2%
COc1ccc(C(=O)Nc2nc3c(s2)Cc2cc(OC)ccc2-3)cc1 -10.8%
COc1ccc(NC(=O)CSc2oc(-c3ccco3)nc2S(=O)(=O)c2ccccc2)c(OC)c1 0%
CCc1ccc(S(=O)(=O)c2nnn3c2nc(NCc2ccccc2)c2cc(Cl)ccc23)cc1 1.67%
O=C(Nc1ccc(Cl)cc1)c1cc(S(=O)(=O)NC2CCCCCC2)ccc1F 0%
CCN1C(=O)C(Cc2nc3ccccc3c(=O)n2C)c2cc(C)ccc21 (stereo unspecified) -0.431%
